# Measured values from PubChem BioAssay (NCATS).
# Inconclusive results, whose numbers are uncertain, are shown with a selection of clear calls. For part of these data: Where the call is inconclusive, the potency comes from a doubtful curve fit. Active and inactive are the calls of the source. Unless noted, calls come from the whole dose curve; as a rule, active = well fitted curve in the direction sought with a large enough effect; inconclusive = small, poorly fitted or top-dose-only effect, or another doubt; inactive = no such curve, though single readings can be large; an effect the other way counts as inactive or inconclusive.
# Legend:
# [1] = target: 3',5'-cyclic-AMP phosphodiesterase 4B (Homo sapiens) (UniProt Q07343); experiment: qHTS Assay for Inhibitors of PDE-IV (AID 607; active = well fitted activation curve with a large enough effect in the main read-out, with a control signal flat, not every such curve was filed as active; inconclusive = small, poorly fitted or top-dose-only effect, or effect the other way, or a change in a side signal; note: potency is the fitted concentration of half-maximal effect; for activation (PDE inhibition): % of control where 0% means no effect); details: HEK293 ACTOne CNG channel cells, membrane potential fluorescence; activation (PDE inhibition): at 22.9 µM (top of the series)
# Method in brief: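 Cell-based read-out of cAMP via a modified cyclic nucleotide-gated channel and membrane potential dye (535/590 nm) in HEK293 cells expressing PDE4 endogenously. Compounds tested up to 22.9 uM final; 100 uM RO 20-1724 reference.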
# [2] = qHTS Assay for Lipid Storage Modulators (AID 1519; calls by dose curve; note: potency is the fitted concentration of half-maximal effect; for activity change, negative = inhibition: % is set by controls: 0 for no effect and ±100 for the full control effect); details: Drosophila S3 cells, BODIPY lipid droplet/cell ratio, laser cytometry, cells loaded with oleic acid; activity change, negative = inhibition: at 57.5 µM (top of the series) unless noted
# Method in brief: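 Cells seeded at 5,000 per well were treated with compounds over a concentration series and loaded with oleic acid (400 uM, as added). Lipid droplet fluorescence (488 nm excitation, 500-530 nm channel) was read by laser-scanning cytometry and normalized to 20 uM Triacsin C.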
# [3] = target: Ubiquitin carboxyl-terminal hydrolase 1 (Homo sapiens) (UniProt O94782); experiment: Inhibitors of USP1/UAF1: Pilot qHTS (AID 504865); note: potency is the fitted concentration of half-maximal effect;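 note: rhodamine fluorescence freed from ubiquitin-rhodamine substrate followed over time; nearly all actives have a fitted effect of over 35% in size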; for activity change, negative = inhibition: top concentration of the series differs between compounds; % is set by controls: 0 for no effect and ±100 for the full control effect
# Method in brief: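 USP1/UAF1 complex at 1 nM preincubated 15 min at room temperature with compound, then Ub-Rho substrate added at 150 nM final. Fluorescence (480/540 nm) read kinetically in 50 mM HEPES pH 7.8, 0.5 mM EDTA, 1 mM TCEP, 0.1 mg/ml BSA, 0.01% Tween-20.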
# [4] = Primary qHTS for small molecule stabilizers of the endoplasmic reticulum resident proteome: Secreted ER Calcium Modulated Protein (SERCaMP) assay (AID 1508630); details: SH-SY5Y GLuc-SERCaMP (Gaussia luciferase released on ER calcium loss) secretion, thapsigargin, luminescence; activity change, negative = inhibition: at 38.4 µM (top of the series) unless noted; note: potency is the fitted concentration of half-maximal effect
# Method in brief: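 GLuc-SERCaMP-expressing SH-SY5Y cells, pretreated 16 h with compound, are challenged with thapsigargin to empty ER calcium stores; after 4 h, coelenterazine is added directly to the medium and luminescence is imaged.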
# [5] = Stat Signaling Pathway (AID 446; active = well fitted curve in either direction with a large enough effect, not every such curve was filed as active; inconclusive = small, poorly fitted or top-dose-only effect, or another doubt;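 note: ME-180 cervical cancer cells given 40 pM IL-6 alongside compound; SIE-controlled beta-lactamase reporter measured as 460/530 nm FRET emission ratio; top concentration of the series differs between compounds; % is set by controls: 0 for no effect and ±100 for the full control effect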); details: ME-180 SIE beta-lactamase reporter, IL-6 stimulated, 5 h; at 7.69 µM (top of the series) unless noted
# Method in brief: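 Reporter line: ME-180 cervical carcinoma, SIE-beta-lactamase. Treatment: compound with 40 pM IL-6, 5 hrs, 37 C, in low-serum OPTI-MEM with 10 mM HEPES pH 7.3. Detection: 460/530 nm fluorescence.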
# [6] = target: Mitogen-activated protein kinase 10 (Mus musculus) (UniProt Q61831); experiment: JNK3 AlphaScreen Assay (AID 530; active = well fitted curve in either direction with a large enough effect, not every such curve was filed as active; inconclusive = small, poorly fitted or top-dose-only effect, or another doubt;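 note: kinase came from lysate of stimulated human HepG2 cells; signal reports phosphorylation of biotinylated GST-cJun 1-79 at Ser73 with 10 µM ATP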; note: potency is the fitted concentration of half-maximal effect); details: JNK3 lysate, c-Jun phosphorylation; activity change, negative = inhibition: at 57.1 µM (top of the series)
# Method in brief: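 Compound titrations were preincubated 15 minutes at room temperature with substrate, antibody and pre-activated JNK3-containing HepG2 lysate. Reactions were started with 10 uM ATP and stopped with EDTA-containing bead buffer for AlphaScreen detection.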
# [7] = target: Tyrosyl-DNA phosphodiesterase 1 (Homo sapiens) (UniProt Q9NUW8); experiment: Confirmation Assay for Inhibitors of Tyrosyl-DNA Phosphodiesterase (TDP1) (AID 489007); details: recombinant human TDP1 enzymatic activity, dose-response; note: potency is the fitted concentration of half-maximal effect; nearly all actives have a fitted effect of over 40% in size
# Method in brief: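 Tdp1 1 nM + cpd, 15 min RT; add biotin/phosphotyrosine-FITC oligo 15 nM, 5 min RT; add AS donor/acceptor beads 10 ug/ml, 10 min RT; read AlphaScreen. No-enzyme wells = max signal.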
# [8] = qHTS Assay for Identification of Small Molecule Agonists for Hypoxia Response Element Signaling Pathway (AID 914; active = well fitted activation curve with a large enough effect in the signal ratio, with a control signal flat, not every such curve was filed as active; inconclusive = small, poorly fitted or top-dose-only effect, or effect the other way, or a change in a side signal; the % refers to the signal ratio; note: top concentration of the series differs between compounds; % of control where 0% means no effect); details: ME-180 (cervical carcinoma) HRE-bla reporter, beta-lactamase ratio, CoCl2, 17 h; activation: active compounds read high
# Method in brief: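 Reporter activity (beta-lactamase, CCF4 460nm/530nm ratio) in HRE-bla ME-180 cells is recorded after 17 h compound exposure with EC50 CoCl2 at 37 degrees Celsius. AC50 values come from titration data.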
# [9] = target: Cytochrome P450 2D6 (Homo sapiens) (UniProt P10635); experiment: qHTS Assay for Inhibitors and Substrates of Cytochrome P450 2D6 (AID 891);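 note: luciferin methyl ether substrate demethylated by CYP2D6 with NADPH regeneration; potency is the fitted concentration of half-maximal effect; nearly all actives have a fitted effect of over 60% in size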
# Method in brief: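 Human CYP2D6 (5 nM) with 30 uM Luciferin-ME EGE (at Km) in 100 mM KPO4, compound preincubated 10 min, then NADPH regeneration system for 60 min at room temperature. Luciferin read by luminescence; normalized to 1.43 uM quinidine.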
# [10] = NFAT Signaling Pathway (AID 444; active = well fitted curve in either direction with a large enough effect, not every such curve was filed as active; inconclusive = small, poorly fitted or top-dose-only effect, or another doubt;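 note: carbachol stimulus at about its EC50 of 1 µM final; % is set by controls: 0 for no effect and ±100 for the full control effect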); details: Jurkat NFAT-bla M1, carbachol, beta-lactamase ratio, 5 h; at 7.69 µM (top of the series) unless noted
# Method in brief: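 Read-out: CCF4 FRET ratio (460 nm/530 nm) after 1 h RT dye loading, used for %activity and AC50 from titration series. Cells: Jurkat NFAT-β-lactamase/M1 line, treated with compound plus 1 uM carbachol for 5 h, 37 °C.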
# Tags give direction and shape of the fitted curve.
# Chain of UniProt O94782 (O94782 whole entry, looked up): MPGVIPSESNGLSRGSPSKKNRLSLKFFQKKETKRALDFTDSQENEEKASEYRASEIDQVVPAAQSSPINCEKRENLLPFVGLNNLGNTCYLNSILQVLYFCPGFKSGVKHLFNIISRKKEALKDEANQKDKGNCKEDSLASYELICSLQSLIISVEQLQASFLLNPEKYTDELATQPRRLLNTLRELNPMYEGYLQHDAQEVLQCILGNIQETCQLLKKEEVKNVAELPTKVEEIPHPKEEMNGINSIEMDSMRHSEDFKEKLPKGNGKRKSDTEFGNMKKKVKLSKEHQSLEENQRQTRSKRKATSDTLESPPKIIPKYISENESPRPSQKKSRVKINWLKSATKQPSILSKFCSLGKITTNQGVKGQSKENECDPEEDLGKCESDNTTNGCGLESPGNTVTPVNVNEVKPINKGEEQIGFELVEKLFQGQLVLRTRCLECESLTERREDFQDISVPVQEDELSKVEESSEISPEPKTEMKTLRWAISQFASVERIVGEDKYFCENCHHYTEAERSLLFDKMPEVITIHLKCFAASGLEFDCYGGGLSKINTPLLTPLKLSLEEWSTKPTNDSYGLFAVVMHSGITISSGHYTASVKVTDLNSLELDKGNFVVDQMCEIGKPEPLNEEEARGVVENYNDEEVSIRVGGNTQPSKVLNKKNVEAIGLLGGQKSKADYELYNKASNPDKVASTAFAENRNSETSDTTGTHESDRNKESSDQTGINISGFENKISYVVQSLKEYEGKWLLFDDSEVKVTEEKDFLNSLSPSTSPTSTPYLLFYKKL
# Chain of UniProt Q07343 (Q07343 whole entry, looked up): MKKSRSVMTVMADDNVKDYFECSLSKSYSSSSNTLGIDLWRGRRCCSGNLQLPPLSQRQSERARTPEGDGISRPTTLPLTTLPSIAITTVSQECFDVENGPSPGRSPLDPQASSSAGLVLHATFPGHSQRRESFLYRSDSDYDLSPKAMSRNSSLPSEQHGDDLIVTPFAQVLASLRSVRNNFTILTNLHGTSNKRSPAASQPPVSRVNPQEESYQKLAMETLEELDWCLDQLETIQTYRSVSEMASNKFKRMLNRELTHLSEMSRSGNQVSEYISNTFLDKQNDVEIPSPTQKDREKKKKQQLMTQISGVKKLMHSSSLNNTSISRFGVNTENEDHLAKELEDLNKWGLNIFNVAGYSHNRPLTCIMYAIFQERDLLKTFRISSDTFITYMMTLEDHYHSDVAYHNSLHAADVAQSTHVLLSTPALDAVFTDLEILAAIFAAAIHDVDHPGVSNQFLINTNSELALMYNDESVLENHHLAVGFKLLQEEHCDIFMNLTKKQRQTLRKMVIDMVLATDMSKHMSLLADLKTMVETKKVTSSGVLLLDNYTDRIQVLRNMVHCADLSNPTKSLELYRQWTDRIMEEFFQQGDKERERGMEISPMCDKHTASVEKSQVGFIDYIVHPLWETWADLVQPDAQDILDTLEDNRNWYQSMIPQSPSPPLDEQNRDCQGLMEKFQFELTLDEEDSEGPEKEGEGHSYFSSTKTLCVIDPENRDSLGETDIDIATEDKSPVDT
# Chain of UniProt P10635 (P10635 whole entry, looked up): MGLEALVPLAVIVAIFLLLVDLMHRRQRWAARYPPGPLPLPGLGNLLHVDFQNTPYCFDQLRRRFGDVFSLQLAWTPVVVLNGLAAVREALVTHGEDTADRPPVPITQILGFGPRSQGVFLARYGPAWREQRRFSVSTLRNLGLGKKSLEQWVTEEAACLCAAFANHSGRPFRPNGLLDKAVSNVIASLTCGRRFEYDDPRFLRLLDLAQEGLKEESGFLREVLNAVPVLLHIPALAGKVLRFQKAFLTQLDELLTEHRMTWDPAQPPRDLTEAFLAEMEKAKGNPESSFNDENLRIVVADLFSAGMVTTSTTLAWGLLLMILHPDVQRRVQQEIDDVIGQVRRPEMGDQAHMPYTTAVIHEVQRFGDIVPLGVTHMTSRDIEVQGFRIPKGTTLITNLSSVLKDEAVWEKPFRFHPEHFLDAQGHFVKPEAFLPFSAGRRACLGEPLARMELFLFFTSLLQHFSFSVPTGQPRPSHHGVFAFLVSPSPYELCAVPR
# Chain of UniProt Q9NUW8 (Q9NUW8 whole entry, looked up): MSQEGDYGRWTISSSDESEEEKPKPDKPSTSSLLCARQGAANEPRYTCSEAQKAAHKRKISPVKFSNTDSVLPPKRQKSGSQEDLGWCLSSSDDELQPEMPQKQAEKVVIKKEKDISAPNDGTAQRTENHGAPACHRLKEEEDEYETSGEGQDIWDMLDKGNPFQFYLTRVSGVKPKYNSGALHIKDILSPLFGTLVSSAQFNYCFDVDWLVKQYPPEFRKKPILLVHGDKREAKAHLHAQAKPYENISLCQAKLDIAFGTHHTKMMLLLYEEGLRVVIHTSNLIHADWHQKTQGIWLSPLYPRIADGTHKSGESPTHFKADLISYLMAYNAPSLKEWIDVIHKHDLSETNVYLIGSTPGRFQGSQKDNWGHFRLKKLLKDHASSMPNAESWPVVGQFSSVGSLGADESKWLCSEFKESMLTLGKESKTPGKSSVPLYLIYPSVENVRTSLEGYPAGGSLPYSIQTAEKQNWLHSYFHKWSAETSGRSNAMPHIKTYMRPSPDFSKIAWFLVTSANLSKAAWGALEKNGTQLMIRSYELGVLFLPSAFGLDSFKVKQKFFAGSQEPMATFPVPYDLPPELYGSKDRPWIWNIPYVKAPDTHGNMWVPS
compound,measurement,setting,value
CS(=O)(=O)Nc1cccc(-c2nc(NCc3cccnc3)c3ccccc3n2)c1,Potency,[1],"inconclusive: 10 µM [activator, partial curve]"
same,"activity change, negative = inhibition",[2],inconclusive: 9.53%
same,Potency,[3],"inconclusive: 44.7 µM [inhibitor, partial curve, poor fit]"
same,Potency,[4],"inconclusive: 28.2 µM [inhibitor, single point]"
Cc1cnc(CNc2ncnc3ccc(-c4ccccc4Cl)cc23)cn1,"activity, negative = inhibition",[5],inconclusive: -33% [inhibitor]
same,Potency,[6],"inconclusive: 20 µM [inhibitor, single point]"
same,Potency,[1],"inconclusive: 12.6 µM [activator, single point]"
same,"activity change, negative = inhibition",[2],inconclusive: 1.22%
same,Potency,[3],inactive
same,Potency,[4],"inconclusive: 28.2 µM [inhibitor, single point]"
COc1ccccc1-c1nccc(NCc2cccs2)n1,Potency,[1],"inconclusive: 7.94 µM [activator, partial curve]"
same,"activity change, negative = inhibition",[2],inconclusive: 4.6%
same,Potency,[3],"inconclusive: 28.2 µM [inhibitor, single point]"
same,Potency,[4],"inconclusive: 11.2 µM [inhibitor, partial curve, poor fit]"
COc1cccc(-c2nccc(-n3ccnc3)n2)c1,Potency,[2],inactive
same,Potency,[3],"inconclusive: 20 µM [inhibitor, full curve, poor fit]"
same,Potency,[4],inactive
Fc1ccc(Nc2nc(-c3cccnc3)nc3ccccc23)cc1,Potency,[1],"inconclusive: 10 µM [activator, partial curve]"
same,Potency,[2],inactive
same,Potency,[7],"inconclusive: 20 µM [inhibitor, full curve]"
same,Potency,[3],active: 39.8 µM
same,Potency,[4],"inconclusive: 28.2 µM [inhibitor, single point]"
COc1ccc(Oc2ncc3nc(C)c(=O)n(CCC#N)c3n2)cc1,"activity, negative = inhibition",[5],inactive: -12.9%
same,"activity change, negative = inhibition",[2],inconclusive: 7.25%
same,Potency,[4],inactive
COCCn1c(=O)c(CCc2ccccc2)nc2cnc(OCc3ccccc3)nc21,Potency,[6],"inconclusive: 31.6 µM [activator, partial curve]"
same,Potency,[1],"inconclusive: 6.31 µM [activator, partial curve]"
same,activation,[8],inconclusive: -29.6%
same,"activity change, negative = inhibition",[2],inconclusive: 1.17%
same,Potency,[3],inactive
same,Potency,[4],"inconclusive: 20 µM [inhibitor, single point]"
CCCCCCCCC(=O)NCc1cc(OC)c(O)cc1I,Potency,[1],"inconclusive: 15.1 µM [rising, partial curve]"
same,Potency,[9],active: 7.94 µM
same,"activity change, negative = inhibition",[2],inconclusive: 9.95%
same,Potency,[3],"inconclusive: 20 µM [inhibitor, full curve]"
same,Potency,[4],"inconclusive: 28.2 µM [inhibitor, single point]"
CC(C)Oc1ccc2c(=O)c3cc(C(=O)O)ccc3oc2c1,Potency,[1],inactive
same,Potency,[2],"inconclusive: 14.1 µM [rising, single point]"
same,Potency,[3],"inconclusive: 39.8 µM [inhibitor, partial curve]"
same,Potency,[4],"inconclusive: 2 µM [inhibitor, full curve, poor fit]"
COCCn1c(=O)c(-c2cccc(C#N)c2)nc2cnc(OCc3ccccc3)nc21,"activity, negative = inhibition",[5],inconclusive: -38.4% [inhibitor]
same,"activity change, negative = inhibition",[2],inconclusive: -11.5%
same,Potency,[4],"inconclusive: 20 µM [inhibitor, single point]"
NS(=O)(=O)c1cccc2c1c([N+](=O)[O-])cc1[nH]c(=O)c(=O)[nH]c12,Potency,[6],inactive
same,Potency,[1],"inconclusive: 15.1 µM [inhibitor, single point]"
same,"activity change, negative = inhibition",[2],inconclusive: 9.37%
same,Potency,[3],"inconclusive: 56.2 µM [inhibitor, partial curve, poor fit]"
same,Potency,[4],inactive
CN1CCN(c2ncc3ncc(=O)n(Cc4ccc(F)cc4)c3n2)CC1,"activity, negative = inhibition",[5],inactive: -18.8%
same,activation,[8],inactive: -5.68%
same,Potency,[2],inactive
same,Potency,[4],"inconclusive: 10 µM [inhibitor, single point]"
COc1ccccc1-c1nc(NCc2ccccc2)c2ccccc2n1,Potency,[1],"inconclusive: 0.2 µM [rising, full curve, poor fit]"
same,Potency,[9],active: 1.58 µM
same,Potency,[2],"inconclusive: 39.8 µM [cytotoxic, single point]"
same,Potency,[3],active: 11.2 µM
same,Potency,[4],"inconclusive: 10 µM [inhibitor, partial curve, poor fit]"
COCCn1c(=O)c(-c2ccccc2)nc2cnc(Nc3ccccc3)nc21,"activity, negative = inhibition",[5],inconclusive: 38.3% [activator]
same,Potency,[6],inactive
same,Potency,[1],"inconclusive: 7.94 µM [activator, partial curve]"
same,"activity change, negative = inhibition",[2],inconclusive: -7.75%
same,Potency,[4],"inconclusive: 25.1 µM [inhibitor, single point]"
O=C(O)COc1cccc(-c2ocnc2-c2nc(-c3ccccc3)c(-c3ccccc3)o2)c1,Potency,[2],"inconclusive: 15.8 µM [rising, single point]"
same,Potency,[3],active: 39.8 µM
same,Potency,[4],"inconclusive: 2.24 µM [inhibitor, full curve]"
COc1ccc(-c2nc3cnc(Oc4ccccc4)nc3n(C3CC3)c2=O)cc1,"activity change, negative = inhibition",[10],inactive: 15.1%
same,activation,[8],inconclusive: 32.5%
same,"activity change, negative = inhibition",[2],inconclusive: 3.81%
same,Potency,[4],"inconclusive: 11.2 µM [inhibitor, single point]"
